Measured values as given in PubChem BioAssay AID1345082 (National Center for Advancing Translational Sciences (NCATS), 2018).
Screen size: about 94,000 compounds; about 4,000 (4.3%) were called active. The shares of active, inactive and inconclusive entries below differ from those in the screen. Calls come from the whole dose curve; as a rule, active = well fitted inhibition curve with a large enough effect; inconclusive = small, poorly fitted or top-dose-only effect; inactive = no such curve, though single readings can be large or run the other way. Potencies of inconclusive entries are doubtful fits and often do not repeat.
Potency is the fitted concentration of half-maximal effect; tags give direction and shape of the fitted curve.

Test: Cytotoxic Profiling in NIH 3T3 Cell Line of Diverse Libraries Using Quantitative High-Throughput Screening; note: nearly all actives have a fitted effect of over 55% in size
Details: NIH 3T3 viability, CellTiter-Glo ATP luminescence, 48-72 h; series mostly up to 96.7 µM
Outline: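 Cells were seeded at 400 per well, treated with pin-transferred compound, and kept 48 or 72 hr at 37 °C before CellTiter-Glo addition and luminescence imaging of cellular ATP.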
With CCCN(CCC)C(=O)CC1=CSC2=NC(CC)=C(C(=O)OC)C(c3cccc(F)c3)N12 (stereo not drawn) the Potency was inconclusive: 50.1 µM [inhibitor, partial curve, poor fit].
In the case of O=C(NC1CCCC1)c1ccc(OC2CCN(C(=O)C3CCCO3)CC2)c(Cl)c1 (stereo not drawn), the Potency is reported as inconclusive: 50.1 µM [inhibitor, partial curve, poor fit].
With CCCn1nc(C)c(-c2cc(C(=O)N3CCCC(Cc4nncn4Cc4ccccc4)C3)[nH]n2)c1C (stereo not drawn) the Potency was “inactive”.
With O=C(NCc1ccccc1)c1cnc2n1CCN(Cc1ccccc1O)CC2 the Potency was inconclusive: 100 µM [inhibitor, partial curve].
For CC1(CNc2ccccc2)COc2ccc(C(=O)NCc3cccc(F)c3)cc2N1 (stereo not drawn), the Potency was active: 39.8 µM.
For Cc1noc(C)c1CC(=O)N1CCC(c2noc(-c3cnccn3)n2)C1 (stereo not drawn), the Potency was “inactive”.
For COc1ccc(-c2cc(C(=O)NCC(C)C)c3c(C4CCNC4)noc3n2)cc1 (stereo not drawn), the Potency was inconclusive: 56.2 µM [inhibitor, partial curve, poor fit].
In the case of COc1ccc(C(=O)N2CCc3[nH]nc(C(=O)NCCCc4ccccc4)c3C2)cc1, the Potency is reported as inconclusive: 22.4 µM [inhibitor, full curve, poor fit].
For C[C@H]1CCCN1C(=O)c1nnc(CNCc2cccc(Cl)c2)n1-c1ccccc1, the Potency was inconclusive: 56.2 µM [inhibitor, partial curve, poor fit].
For CCOc1ccc(CN2C[C@@H](NC(=O)COC)C[C@H]2CO)cc1, the Potency was inconclusive: 79.4 µM [inhibitor, partial curve, poor fit].
With Fc1cccc(CN2CCO[C@@H](COc3ccccn3)[C@@H]2c2ccccc2)c1 the Potency was active: 35.5 µM.
With Cn1nc(C2CC2)cc1NC(=O)c1ccccc1Cl the Potency was “inactive”.
With Cc1ccc(S(=O)(=O)Nc2ccc(C)n(CC(=O)Nc3ccccc3)c2=O)cc1 the Potency was “inactive”.
With CCCN1CCCCC12Cc1ccccc1CN(C(=O)C1CCN(C)CC1)C2 (stereo not drawn) the Potency was inconclusive: 70.8 µM [inhibitor, single point].
With Cc1cccc(-n2nc(C)c(CCC(=O)N(C)C(C)C)c2Oc2ccccc2)c1 the Potency was active: 15.8 µM.
For CC#CCn1cc2c3c(cccc31)[C@H](CC(C)C)N[C@H](C(=O)N1CCN(CCOC)CC1)C2, the Potency was inconclusive: 79.4 µM [inhibitor, partial curve].
With COc1cc(NC(=O)Cn2c(N3CCc4ccccc4C3)nc(C)cc2=O)cc(OC)c1 the Potency was inconclusive: 44.7 µM [inhibitor, partial curve, poor fit].
For CCCCc1cc(C[C@@H]2C[C@H](NC(=O)NC(C)C)C2(C)C)no1, the Potency was inconclusive: 112 µM [inhibitor, partial curve].
